Reference: PubChem BioAssay AID686979 (National Center for Advancing Translational Sciences (NCATS), 2013)
Hit rate of the full screen: of about 420,000 compounds, about 50,000 (12%) were called active. The call rests on the fitted dose curve; in most records, active means well fitted inhibition curve with a large enough effect; inconclusive means small, poorly fitted or top-dose-only effect; inactive means flat fitted curve, though single readings scatter. Inconclusive results, whose numbers are uncertain, are shown. Potencies of inconclusive entries are left out as doubtful fits.

Assay: qHTS for Inhibitors of human tyrosyl-DNA phosphodiesterase 1 (TDP1): qHTS in cells in presence of CPT; further: nearly all actives have a fitted effect of over 55% in size
Conditions: chicken DT40 Tdp1-/-;hTDP1 cells + 20 nM CPT, ATP luminescence, 48 h; series mostly up to 46.2 µM
Summary of the method: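 Cell growth measured by CellTiter-Glo luminescence after a minimum 48 h, 37 C compound exposure with 20 nM CPT in Tdp1-knockout DT40 cells stably expressing hTDP1, seeded 400/well; qHTS titration format.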
Potency means the concentration at half of the fitted maximal effect; tags describe the fitted curve by direction and shape.

Structure (SMILES)	Potency
Cc1ccccc1N/N=C/c1sc(=O)n(Cc2cccc(C(=O)O)c2)c1Cl	inconclusive [inhibitor, single point]
CCOc1cc(/C=C2/C(=N)N3C(=NC2=O)SN=C3S(C)(=O)=O)ccc1OS(=O)(=O)c1ccccc1	inconclusive [inhibitor, single point]
